Test results taken from PubChem BioAssay AID463173 (ICCB-Longwood Screening Facility, Harvard Medical School, 2010).
The campaign covered roughly 52,000 compounds. About 1,700 (3.3%) were called active. Cut-off read from the data, not from the text of the source: active = survival mostly below about 52% (no sharp cut-off); inactive = mostly above about 56%. This is one part of the list.

test system: Wild type; experiment: S. aureus survival, RN4220 and DeltatarO strains – OD600, teichoic acid synthesis inhibitors, primary screen (AID 463173); details: S. aureus RN4220 wild type/DeltatarO growth, OD600, 18 h, active compounds read low, screened at 18.75 µg/mL (by protocol)

Row | Structure (SMILES) | survival
1 | COc1ccc(/C=C/c2nc(C#N)c(N3CCC(C(N)=O)CC3)o2)cc1OC | inactive: 125%
2 | Cc1c(NC(=O)Nc2cccc(C(F)(F)F)c2)sc2nc3n(c(=O)c12)CCC(C)CC3 (stereo not given) | inactive: 101%
3 | Cc1ccc(-c2nc(CS(=O)(=O)CC(=O)NC(C)CCc3ccccc3)c(C)o2)cc1 (stereo not given) | inactive: 41%
4 | CCc1ccccc1NC(=O)Cn1nnc(C(=O)NCc2ccco2)c1N | inactive: 88%
5 | CCOC(=O)c1nnc2c(-c3ccc(Cl)cc3)c(C)nn2c1N | inactive: 76%
6 | O=C(CCS(=O)(=O)c1ccccc1)N(Cc1cccnc1)c1nc2c(F)cccc2s1 | inactive: 84%
7 | COc1ccc(C(CC(=O)Nc2ccccn2)N2Cc3ccccc3C2=O)cc1OC (stereo not given) | inactive: 74%
8 | CC(=O)Nc1ccc(NC(=O)c2csnn2)cc1 | inactive: 68%
9 | CS(=O)(=O)N(CCc1ccccc1)CC(=O)N1CCCC1 | inactive: 106%
10 | O=C(NCc1ccc(Cl)cc1)C(=O)NCC(c1ccc2c(c1)OCO2)N1CCOCC1 (stereo not given) | inactive: 88%
11 | COc1cc2ccccc2cc1C(=O)N1CCN(c2nc3c(F)cccc3s2)CC1 | inactive: 76%
12 | COCCN1C(=O)N(c2cccc(OC)c2)C(=O)C1CC(=O)Nc1ccccc1 (stereo not given) | inactive: 132%
13 | CCCCc1nn2c(=O)cc(COC(=O)c3cccc(NC(=O)c4cccs4)c3)nc2s1 | inactive: 83%
14 | COc1cc(C(=O)NCCOc2ccc(C)c(C)c2)cc(OC)c1OC | inactive: 116%
15 | CN1C(=O)Cc2cc(S(=O)(=O)CCC(=O)Nc3ccc(Cl)cc3)ccc21 | inactive: 78%
16 | COc1ccc(CCNC(=O)c2cnn(-c3cccc(C)c3)c2C2CCNCC2)cc1OC | inactive: 91%
17 | CC(=O)c1ccc(NC(=O)c2cc3c([nH]c2=O)CC(c2ccccc2)CC3=O)cc1 (stereo not given) | inactive: 85%
18 | CCOc1ccc2c(c1)c(=O)c(C(=O)c1ccccc1)cn2Cc1ccccc1F | inactive: 80%
19 | O=C(c1ccccc1)N1CCC(c2nc3ccccc3o2)CC1 | inactive: 108%
20 | COC1CCCC(C(=O)Nn2c(C3CC3)nc3ccccc3c2=O)C1 (stereo not given) | inactive: 116%
21 | COc1ccc(OC)c(CNS(=O)(=O)c2cc(-c3onc(C)c3C)ccc2C)c1 | inactive: 64%
22 | CCN(CC)C(=O)c1sc2c(c1C)c(=O)n(-c1ccc(C)c(C)c1)c(=O)n2CC(=O)Nc1ccc(OC)cc1OC | inactive: 73%
23 | Cc1cc(F)ccc1NC(=O)CCS(=O)(=O)c1cc2c3c(c1)CCN3C(=O)CC2 | inactive: 75%
24 | COc1ccc(/C=C/C(=O)Nc2cc(-c3nc4ccccc4o3)ccc2OC)cc1 | inactive: 65%
25 | CC(=O)c1ccc(NC(=O)CSc2nnc(-c3ccncc3)n2-c2ccccc2)cc1 | inactive: 70%
26 | CCS(=O)(=O)N1CC(=O)N(c2cc(C)cc(C)c2)C(C)(C(=O)NC2CCCCC2)C1 (stereo not given) | inactive: 73%
27 | Cc1cc(C)n2c(Nc3ccc4c(c3)OCCO4)c(-c3ccccc3)nc2n1 | inactive: 141%
28 | COc1ccc(N2CCN(CCCNC(=O)c3nnc(Cc4ccccc4Cl)o3)CC2)cc1 | inactive: 74%

Row | Structure (SMILES) | survival
29 | Cc1ccc(S(=O)(=O)c2[nH]c(-c3ccccc3)nc2SC(C)C(=O)O)cc1 (stereo not given) | inactive: 82%
30 | COc1ccc(-n2c(SC)nc3sc4c(c3c2=O)CCN(C(C)=O)C4)cc1 | inactive: 126%
31 | FC(F)(F)c1cccc(N2CCN(c3nc4ccccc4n4cnnc34)CC2)c1 | active: 2%
32 | Cc1ccc(NC(=O)CSc2nnc(-c3cc4occc4n3C)n2-c2ccccc2C)c(C)c1 | inactive: 79%
33 | COc1ccc(CNC(=O)C2CCN(C(=O)c3cnn(-c4ccccc4)c3-n3cccc3)CC2)cc1 | inactive: 90%
34 | COC(=O)c1ccccc1NC(=O)CSc1n[nH]c(C)n1 | inactive: 77%
35 | Cc1ccc2c(c1)N(C(=O)Nc1ccc(Br)cc1F)CCO2 | inactive: 81%
36 | Cc1ccn2c(=O)cc(COc3ccc(NC(=O)C(C)(C)C)cc3)nc2c1 | inactive: 83%
37 | CC(C)Oc1ccc(CNC(=O)CN2C(=O)c3cccnc3Oc3ccc(Cl)cc32)cc1 | inactive: 126%
38 | O=C1CSC(=O)N1CNc1cc(Cl)ccc1Cl | inactive: 116%
39 | CCS(=O)(=O)N1CCc2cc(C(=O)NC(C)c3ccccc3)ccc21 (stereo not given) | inactive: 90%
40 | O=c1c2sc3ccccc3c2n(Cc2cccc(C(F)(F)F)c2)c(=O)n1-c1ccccc1 | inactive: 60%
41 | CCCCCn1c(=N)c(S(=O)(=O)c2ccc(C)cc2)cc2c(=O)n3cc(C)ccc3nc21 | inactive: 75%
42 | Cn1c(COc2ccccc2C(C)(C)C)nc2ccccc21 | active: -17%
43 | COc1ccc(S(=O)(=O)c2cc3cc(C(C)(C)C)cc(O)c3oc2=O)cc1 | active: 10%
44 | COC(=O)c1ccc(NS(=O)(=O)c2ccc3c(c2)n(C)c(=O)c(=O)n3C)cc1 | inactive: 90%
45 | Cn1c2c(c(=O)n(C)c1=O)C(c1ccccc1C(F)(F)F)CC(=O)N2 (stereo not given) | inactive: 77%
46 | CCOC(=O)c1ccc(CN(Cc2ccc(F)cc2)S(=O)(=O)c2ccc(F)c(C(=O)Nc3ccccc3C(F)(F)F)c2)cc1 | inactive: 89%
47 | CC(C)(CC(=O)NCc1ccc(Cl)cc1Cl)CC1=NS(=O)(=O)c2ccccc2N1 | inactive: 83%
48 | Cc1ccc(C(=O)N2CCN(c3cccc(Cl)c3)CC2)cc1-n1c(C)nc2cccnc21 | inactive: 84%
49 | CCNC(=O)CC1C(=O)N(c2ccc(F)cc2)C(=O)N1Cc1ccc(OC)c(OC)c1 (stereo not given) | inactive: 90%
50 | COc1cc(Cl)c(C)cc1NC(=O)C1CCCN(c2ncnc3onc(-c4ccc(F)cc4)c23)C1 (stereo not given) | inactive: 71%
51 | O=C(c1ccc2c(c1)N(Cc1cccc(Cl)c1)C(=O)c1ccccc1S2(=O)=O)N1CCc2ccccc21 | active: -3%
52 | CCc1ccccc1N(CC)C(=O)C(=O)Nc1ccc2nc3n(c(=O)c2c1)CCCCC3 | inactive: 71%
53 | CCOC(=O)c1cccc(NC(=O)CCn2nc(C)c3c(C)n(-c4ccccc4)nc3c2=O)c1 | inactive: 73%
54 | COCCCNC(=O)C1CCCN(S(=O)(=O)c2ccc3c(c2)oc(=O)n3C)C1 (stereo not given) | inactive: 90%
55 | Cc1cc2c(cc1S(=O)(=O)N(C)CC(=O)Nc1cccc(C#N)c1)OCC(=O)N2 | active: -4%
